Measurements from the supplement of paper PMC3334620.
In all, about 33,000 sequences were measured (“E-score (-0.5 to 0.5)”: median about -0.035, highest 2% from about 0.34 on). This is one part of the list.

These sequences were tested against T1, Mot3 (UniProt P54785) (assay: PBM E-score (8-mer binding enrichment) (E-score (-0.5 to 0.5)); higher = stronger / more preferred TF binding; most listed sequences are background and not binding sites). Settings: protein concentration: 200 nM; construct: GST-full length.
T1 sequence: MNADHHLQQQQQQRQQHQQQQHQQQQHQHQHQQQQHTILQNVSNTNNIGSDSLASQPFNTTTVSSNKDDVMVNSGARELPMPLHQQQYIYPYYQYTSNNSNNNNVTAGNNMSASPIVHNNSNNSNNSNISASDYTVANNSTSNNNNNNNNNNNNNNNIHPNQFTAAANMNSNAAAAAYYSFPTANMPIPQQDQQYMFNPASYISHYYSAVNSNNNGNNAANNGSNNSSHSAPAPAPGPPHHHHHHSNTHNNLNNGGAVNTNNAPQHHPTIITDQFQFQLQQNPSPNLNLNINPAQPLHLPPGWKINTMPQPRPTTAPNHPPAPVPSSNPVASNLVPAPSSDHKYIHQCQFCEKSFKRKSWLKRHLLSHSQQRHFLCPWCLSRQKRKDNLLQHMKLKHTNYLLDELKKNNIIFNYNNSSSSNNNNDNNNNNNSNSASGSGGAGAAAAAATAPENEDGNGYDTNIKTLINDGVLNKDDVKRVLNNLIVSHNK
In short: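 Detection of bound protein used fluorescent anti-GST, with scans normalised by masliner. The proteins were GST-tagged yeast transcription factors applied at about 100-200 nM to universal all-10-mer Agilent arrays made double-stranded by primer extension. Each ungapped eight-base word, pooled with its reverse complement, was scored with an E-score from the Universal PBM Analysis Suite.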

| Sequence | PBM E-score |
| --- | --- |
| CGAAGCCA | -0.252 |
| AGGTACAA | 0.363 |
| ATTCCGAC | -0.0564 |
| CACCAATA | 0.0883 |
| GCAATTCA | 0.151 |
| GAGCCGTA | 0.0271 |
| CGCACGTC | -0.119 |
| TAGAGTGA | -0.0936 |
| CATGTAAC | 0.382 |
| ACCTGCTC | 0.166 |
| CCCCACTC | -0.272 |
| AGCTGGCG | -0.197 |
| ACCAGATA | 0.0595 |
| AGACTAAT | -0.111 |
| TATGCGAA | -0.0122 |
| CGTTGTAG | 0.145 |
| AACGCTTA | -0.0517 |
| GACATCTC | -0.202 |
| AAGAGGTA | -0.073 |
| ACCGTCAC | -0.261 |
| CTTAGGCA | 0.444 |
| AAGTCTAT | 0.027 |
| CATTTGGG | -0.173 |
| CAAAGGAA | 0.415 |
| CTGGGGTC | -0.0886 |

| Sequence | PBM E-score |
| --- | --- |
| CGCTATTA | 0.168 |
| AGGTATCG | -0.0102 |
| GCAACGGC | -0.00677 |
| CTTTCGAC | -0.0418 |
| ATACGGGG | -0.323 |
| GGCACGTA | 0.363 |
| AGTCGGAG | -0.136 |
| AGCTGGCA | -0.219 |
| AGGGGGTA | -0.344 |
| CCTTGCGA | -0.138 |
| ATCAGAAC | -0.0851 |
| AAACTGGC | 0.0529 |
| ACACATTA | 0.215 |
| ACGCATAA | 0.185 |
| GGCCCTCA | -0.257 |
| AGCCCTGG | -0.313 |
| GCCACTAC | -0.155 |
| ACAAAGCT | 0.178 |
| GTTTGATA | -0.0471 |
| CGCAATTA | 0.00607 |
| AAAGTACG | 0.0187 |
| GTCATACA | 0.0967 |
| AATAGTAG | 0.0511 |
| TAGCCAAA | -0.0612 |
| ATATTGCA | -0.0489 |

| Sequence | PBM E-score |
| --- | --- |
| TGACCCAA | -0.0363 |
| CTCTAGTC | -0.292 |
| ATTATACC | 0.0793 |
| CAACCGTC | -0.159 |
| ACTTTCAC | 0.0608 |
| CCTAGCGC | 0.0285 |
| AACACACT | 0.22 |
| AGTGCATG | 0.105 |
| GCCTTCAA | 0.329 |
| ATATCGCC | -0.0398 |
| GAGGGATA | -0.266 |
| CTAACCCC | -0.216 |
| ACACTCCA | -0.141 |
| GGATCTAA | -0.135 |
| ATTACGTG | 0.383 |
| CGCTTACG | -0.0536 |
| CCATTGAA | 0.0844 |
| CTATCAGC | -0.0433 |
| GTCGGCTA | -0.0889 |
| GGATCGTA | -0.216 |
| TACGGGCA | 0.174 |
| ACGCACAT | 0.066 |
| ATAGATAG | 0.102 |
| CTCGCGAC | -0.296 |
| CCAAGACA | 0.0306 |

| Sequence | PBM E-score |
| --- | --- |
| AGTCTTTA | 0.0546 |
| AGTATCAT | -0.0563 |
| CTTGACTA | 0.0311 |
| AGCTGGAA | -0.29 |
| ATTCCTCA | 0.121 |
| ACACGTCA | 0.286 |
| CCGAAACA | -0.0118 |
| AACTAGCG | -0.0354 |
| AATCTGTG | 0.0694 |
| AGGCGTGG | -0.343 |
| AACCAGTC | -0.0431 |
| CCAAGCAG | -0.132 |
| CTCATGAC | -0.146 |
| AGACGGCG | -0.248 |
| GCAGCCAA | -0.0882 |
| CATGGGGC | -0.0528 |
| CAGAAGTA | -0.0319 |
| CTCGGCTC | -0.309 |
| AGGTAAGC | 0.16 |
| TCAACCCA | -0.119 |
| ATGAGTGA | -0.168 |
| GATAATCA | -0.0893 |
| AATTGAAA | 0.0818 |
| TGTAGTAA | 0.24 |
| CATCATTC | -0.111 |

| Sequence | PBM E-score |
| --- | --- |
| ATGTGAAG | 0.281 |
| ATTCTGAC | -0.141 |
| CCAGAATC | -0.0358 |
| GCTCTAAC | -0.265 |
| CACTGAGG | -0.0281 |
| CGAAATCA | 0.131 |
| CGAGAAGA | -0.0604 |
| GCCTCACA | 0.212 |
| ATCGACCG | -0.279 |
| CGAGTTGC | 0.0141 |
| CTGGGCGA | -0.263 |
| AAGGCGAT | 0.143 |
| ATCGCGAA | -0.0779 |
| TCAAAAAA | 0.046 |
| AGTGATAG | 0.0766 |
| TGCACGAA | 0.0654 |
| TCAGTGGA | -0.218 |
| CCAGCCGG | -0.245 |
| ACAAACGA | 0.228 |
| ATCTGCAT | -0.144 |
| ACTGTTAT | 0.0403 |
| AAGTAACT | 0.0102 |
| AATAACGT | 0.191 |
| ATAACAGG | 0.229 |
| CGGGAGTC | -0.361 |

| Sequence | PBM E-score |
| --- | --- |
| CGTTAACA | 0.244 |
| GCGAAAAC | -0.0151 |
| CATGGATA | 0.166 |
| AACACTTA | 0.0717 |
| CGTGTCGC | 0.0788 |
| AGAAGCGA | -0.0571 |
| CAATCAGA | 0.0437 |
| CACACTGG | -0.0931 |
| ACAGTCAG | -0.0154 |
| CACCAACC | -0.151 |
| ACAATTAA | 0.0891 |
| CTCGCTAC | -0.206 |
| CCAAGGGG | -0.243 |
| GATAGTGA | -0.0691 |
| GAGCTAGC | -0.193 |
| AAGATGAG | 0.0134 |
| AAGAGCAC | -0.0564 |
| CCACGCGA | -0.138 |
| GAGCCATA | -0.139 |
| AAACCATA | -0.0448 |
| TCCATCGA | -0.0692 |
| TGCGCGAA | 0.0212 |
| TCTACTAA | 0.0381 |
| CAATACCA | 0.0932 |
| GGTAGAGA | -0.198 |

| Sequence | PBM E-score |
| --- | --- |
| AAATCGCG | 0.00312 |
| ATTTACCG | 0.0616 |
| GTCCGGTA | -0.107 |
| CGTATTTC | 0.215 |
| GGCTCTTA | -0.00724 |
| CATATGCG | 0.0335 |
| AACCTCAA | -0.0401 |
| CGAGGACG | -0.24 |
| GTACCAAA | 0.0359 |
| GGGTTGTA | 0.106 |
| ATGGATCC | -0.196 |
| GATTCGAC | 0.0203 |
| ATGGGGTA | -0.0156 |
| TCGGAAGA | -0.261 |
| GGGCTTAA | -0.167 |
| TAGTAGAA | 0.177 |
| ATTGTAGA | 0.14 |
| GCGGCGAA | -0.225 |
| AAGCCTTA | -0.147 |
| AAAGACTG | -0.078 |
| GTCGTGCA | 0.0491 |
| AGGGTAGG | 0.0464 |
| AGTGGTTA | 0.0302 |
| CCATACGC | -0.106 |
| ATACAGTG | -0.0188 |

| Sequence | PBM E-score |
| --- | --- |
| ACTTGGTA | 0.16 |
| CTGGGGAC | -0.125 |
| GGGGTACC | -0.158 |
| AGTTATTC | 0.0282 |
| ACTTTACT | 0.164 |
| ACGGAGCA | 0.111 |
| ACGATCAA | 0.0643 |
| GAGATCGA | -0.0959 |
| GCTGACCC | -0.214 |
| CAACTGGC | -0.268 |
| CCTCCACC | -0.207 |
| ACTCATAC | -0.0425 |
| CTTAGACA | 0.111 |
| AATCGCAT | -0.0399 |
| TATTTGAA | -0.027 |
| CCAACACA | 0.131 |
| ATTGAAGC | -0.0722 |
| AAGGTCTA | -0.177 |
| CCTTAGCG | 0.0459 |
| GCCCAGAA | -0.137 |
| CTAGTAGC | -0.108 |
| CCAGCGGC | -0.0396 |
| AAGTAACA | 0.225 |
| AAAAAGGT | 0.285 |
| GCCTTGAC | 0.0121 |

| Sequence | PBM E-score |
| --- | --- |
| ACTACGAG | -0.0186 |
| CCGCTGAA | -0.0325 |
| CCTGCTCA | 0.255 |
| CGTGTGTA | 0.349 |
| AATCCGGA | -0.187 |
| AATGCGTG | 0.166 |
| CGCCTCAA | -0.051 |
| CACTTTTA | 0.117 |
| AGTGAGTA | 0.147 |
| ACGCCGCC | -0.0194 |
| AACGCGAA | 0.268 |
| GTCGAGTA | -0.0378 |
| GTTAGACA | 0.119 |
| CTCATCTC | -0.141 |
| GCGCGCAC | 0.0018 |
| CGGTGACG | -0.116 |
| TACTAATA | 0.0453 |
| GGCATGAC | -0.142 |
| ATAACTAT | 0.0609 |
